# Measurements published in the supplement of paper PMC6206098.
# ± gives the uncertainty stated by the source. The sequences are guide strands of siRNAs; only the seed at positions 2 to 7 varies.
# What was measured:
# H460 = test: cell viability relative to lipid-only control; higher = less toxic; settings: concentration: 10 nM; 96 h; Homo sapiens
# Protocol: (§1)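 Arrayed screen of 4096 siRNA duplexes, each carrying one of all possible 6mer seeds at guide-strand positions 2-7 in a fixed neutral 19mer scaffold (constant flanks: U at position 1, then ACAUGUAAACCA, plus a 3' AA overhang). The passenger strand is 2'-O-methylated at positions 1-2 so only the guide strand loads into RISC. Duplexes were reverse-transfected at 10 nM with RNAiMAX in triplicate in 384-well plates; viability was read by CellTiter-Glo ATP content 96 h after transfection. Values are % viability normalised to lipid-only wells (HeyA8, H460, M565) or to siNT1 (3LL).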
# HeyA8 = test: as above; settings: concentration: 10 nM; 96 h; Homo sapiens
# Protocol: as §1
# M565 = test: as above; settings: concentration: 10 nM; 96 h; Mus musculus
# Protocol: as §1
# 3LL = test: cell viability relative to siNT1 control; HeyA8 human ovarian and H460 human lung cancer; M565 mouse liver and 3LL mouse lung cancer; siNT1 is a non-toxic control siRNA; higher = less toxic; settings: concentration: 10 nM; 96 h; Mus musculus
# 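Wherever cell viability relative to lipid-only control is given: reverse lipid transfection in 384-well plates, in triplicate, of duplexes on a non-toxic 19mer backbone with passenger strand 2′-O-methylated at positions 1 and 2, luminescence viability read-out.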
# 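Wherever cell viability relative to siNT1 control is given: Luminescence-based viability of cells reverse transfected in 384-well plates with lipid-complexed siRNAs built on a non-toxic 19mer backbone whose passenger strand carries 2′-O-methyl groups at positions 1 and 2, triplicates.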
sequence,measurement,setting,value
UUACGCGACAUGUAAACCAAA,cell viability,H460,93.2 ± 14%
same,cell viability,HeyA8,104.3 ± 1%
same,cell viability,M565,88.5 ± 3.4%
same,cell viability,3LL,88.6 ± 4.7%
UUUGCCGACAUGUAAACCAAA,cell viability,H460,76 ± 9.9%
same,cell viability,HeyA8,94.4 ± 3.1%
same,cell viability,M565,79.4 ± 7%
same,cell viability,3LL,83.9 ± 3.8%
UCGUUAAACAUGUAAACCAAA,cell viability,H460,92.1 ± 21%
same,cell viability,HeyA8,84.1 ± 3.4%
same,cell viability,M565,66.3 ± 5.6%
same,cell viability,3LL,95 ± 13%
UCCAAGGACAUGUAAACCAAA,cell viability,H460,44.8 ± 6.1%
same,cell viability,HeyA8,57.5 ± 2.1%
same,cell viability,M565,16.6 ± 7.7%
same,cell viability,3LL,99.7 ± 22%
UUAGCUUACAUGUAAACCAAA,cell viability,H460,66.9 ± 4%
same,cell viability,HeyA8,63.3 ± 2.5%
same,cell viability,M565,67.3 ± 7.7%
same,cell viability,3LL,54.6 ± 6.8%
UCCCCAGACAUGUAAACCAAA,cell viability,H460,95.1 ± 11%
same,cell viability,HeyA8,79.3 ± 4.2%
same,cell viability,M565,51.7 ± 13%
same,cell viability,3LL,109 ± 19%
UUCUCAAACAUGUAAACCAAA,cell viability,H460,51.9 ± 4.8%
same,cell viability,HeyA8,101 ± 4%
same,cell viability,M565,90.2 ± 16%
same,cell viability,3LL,89.8 ± 13%
UAGCGAAACAUGUAAACCAAA,cell viability,H460,85.2 ± 19%
same,cell viability,HeyA8,81.3 ± 7.3%
same,cell viability,M565,67.8 ± 5.3%
same,cell viability,3LL,94.5 ± 8.3%
UGGACGAACAUGUAAACCAAA,cell viability,H460,57.6 ± 10%
same,cell viability,HeyA8,53.2 ± 2.2%
same,cell viability,M565,24.3 ± 7.6%
same,cell viability,3LL,87.9 ± 3.6%
UGCUUUGACAUGUAAACCAAA,cell viability,H460,66.1 ± 5.7%
same,cell viability,HeyA8,40.3 ± 9.1%
same,cell viability,M565,42.8 ± 2.5%
same,cell viability,3LL,53.6 ± 9.1%
UUGACAAACAUGUAAACCAAA,cell viability,H460,90.46 ± 0.55%
same,cell viability,HeyA8,102 ± 12%
same,cell viability,M565,90.3 ± 16%
same,cell viability,3LL,83.8 ± 9.2%
UUUAUGCACAUGUAAACCAAA,cell viability,H460,18.3 ± 2.7%
same,cell viability,HeyA8,23.1 ± 3.7%
same,cell viability,M565,29 ± 5.9%
same,cell viability,3LL,24.9 ± 2.3%
UGCCGCAACAUGUAAACCAAA,cell viability,H460,82.5 ± 15%
same,cell viability,HeyA8,43.5 ± 5.5%
same,cell viability,M565,12 ± 3.1%
same,cell viability,3LL,14.4 ± 8.1%
UUUAACCACAUGUAAACCAAA,cell viability,H460,50.1 ± 1.8%
same,cell viability,HeyA8,71.4 ± 5.4%
same,cell viability,M565,74.4 ± 11%
same,cell viability,3LL,58.2 ± 4.1%
UGUGGGCACAUGUAAACCAAA,cell viability,H460,16.3 ± 0.32%
same,cell viability,HeyA8,2.77 ± 0.34%
same,cell viability,M565,15.5 ± 2.9%
same,cell viability,3LL,39.8 ± 10%
UCGCAUUACAUGUAAACCAAA,cell viability,H460,69.4 ± 9.7%
same,cell viability,HeyA8,76.3 ± 0.19%
same,cell viability,M565,62.2 ± 6.7%
same,cell viability,3LL,95.1 ± 25%
UGUUGUAACAUGUAAACCAAA,cell viability,H460,58 ± 7.7%
same,cell viability,HeyA8,57.1 ± 9.2%
same,cell viability,M565,35.4 ± 6.1%
same,cell viability,3LL,99.2 ± 10%
UCGACAAACAUGUAAACCAAA,cell viability,H460,68.9 ± 14%
same,cell viability,HeyA8,90.5 ± 7.2%
same,cell viability,M565,69.9 ± 12%
same,cell viability,3LL,89.5 ± 24%
UCAGAAGACAUGUAAACCAAA,cell viability,H460,66.6 ± 13%
same,cell viability,HeyA8,91.2 ± 3.2%
same,cell viability,M565,57.1 ± 11%
same,cell viability,3LL,92.9 ± 17%
UGGUGGCACAUGUAAACCAAA,cell viability,H460,12.7 ± 2.1%
same,cell viability,HeyA8,3.97 ± 0.63%
same,cell viability,M565,15.7 ± 1.4%
same,cell viability,3LL,8.5 ± 3.1%
UGGAGAUACAUGUAAACCAAA,cell viability,H460,42.9 ± 5.6%
same,cell viability,HeyA8,27.2 ± 4.2%
same,cell viability,M565,22.2 ± 3.7%
same,cell viability,3LL,23.6 ± 5.2%
UACUGAGACAUGUAAACCAAA,cell viability,H460,81.8 ± 15%
same,cell viability,HeyA8,106 ± 9%
same,cell viability,M565,38.9 ± 8%
same,cell viability,3LL,91.8 ± 13%
UUAACAAACAUGUAAACCAAA,cell viability,H460,89.7 ± 13%
same,cell viability,HeyA8,100 ± 4.2%
same,cell viability,M565,108 ± 9.7%
same,cell viability,3LL,99.3 ± 2.4%
UCGUGCGACAUGUAAACCAAA,cell viability,H460,83.3 ± 19%
same,cell viability,HeyA8,84.5 ± 5.3%
same,cell viability,M565,41.1 ± 2.3%
same,cell viability,3LL,51.7 ± 10%
UUUUAGCACAUGUAAACCAAA,cell viability,H460,62.9 ± 1.9%
same,cell viability,HeyA8,74.5 ± 4%
same,cell viability,M565,67.2 ± 9.4%
same,cell viability,3LL,34.1 ± 7.8%
UACACUGACAUGUAAACCAAA,cell viability,H460,82.2 ± 20%
same,cell viability,HeyA8,77.8 ± 2.2%
same,cell viability,M565,67.5 ± 14%
same,cell viability,3LL,89.2 ± 14%
UGCAUACACAUGUAAACCAAA,cell viability,H460,48.2 ± 1.8%
same,cell viability,HeyA8,53.8 ± 6.8%
same,cell viability,M565,80 ± 4.3%
same,cell viability,3LL,86.9 ± 6.6%
UACCCGCACAUGUAAACCAAA,cell viability,H460,49.6 ± 5.5%
same,cell viability,HeyA8,17.8 ± 3.3%
same,cell viability,M565,51 ± 16%
same,cell viability,3LL,27.7 ± 9.5%
UCAGGCGACAUGUAAACCAAA,cell viability,H460,58.5 ± 8.1%
same,cell viability,HeyA8,91.2 ± 6.2%
same,cell viability,M565,38.1 ± 2.7%
same,cell viability,3LL,88 ± 20%
UUUCAUGACAUGUAAACCAAA,cell viability,H460,35 ± 7.6%
same,cell viability,HeyA8,100 ± 2.5%
same,cell viability,M565,82 ± 8%
same,cell viability,3LL,103 ± 8.5%
UCCCUCGACAUGUAAACCAAA,cell viability,H460,46.2 ± 6.5%
same,cell viability,HeyA8,76.2 ± 1.6%
same,cell viability,M565,58.9 ± 16%
same,cell viability,3LL,92.9 ± 14%
UAACCUUACAUGUAAACCAAA,cell viability,H460,79.3 ± 9.9%
same,cell viability,HeyA8,65.3 ± 5.4%
same,cell viability,M565,77.2 ± 8.1%
same,cell viability,3LL,94.8 ± 6.1%
UAACCCAACAUGUAAACCAAA,cell viability,H460,80.7 ± 5.5%
same,cell viability,HeyA8,76.6 ± 5.5%
same,cell viability,M565,52.3 ± 4.6%
same,cell viability,3LL,83.4 ± 1.2%
UGAUAACACAUGUAAACCAAA,cell viability,H460,45.6 ± 4.4%
same,cell viability,HeyA8,33.7 ± 1.8%
same,cell viability,M565,63.9 ± 14%
same,cell viability,3LL,13.6 ± 7%
UAUCACUACAUGUAAACCAAA,cell viability,H460,38.3 ± 4.5%
same,cell viability,HeyA8,68.1 ± 2.5%
same,cell viability,M565,117 ± 25%
same,cell viability,3LL,60.7 ± 8.9%
UUCGUGUACAUGUAAACCAAA,cell viability,H460,70.6 ± 9.1%
same,cell viability,HeyA8,89.9 ± 14%
same,cell viability,M565,32.7 ± 4.8%
same,cell viability,3LL,84.2 ± 15%
UUGCUAGACAUGUAAACCAAA,cell viability,H460,41.3 ± 6%
same,cell viability,HeyA8,69.7 ± 3.6%
same,cell viability,M565,86.2 ± 6.2%
same,cell viability,3LL,72 ± 3.3%
UAUUGAGACAUGUAAACCAAA,cell viability,H460,74.2 ± 3.4%
same,cell viability,HeyA8,96 ± 11%
same,cell viability,M565,75.7 ± 7.8%
same,cell viability,3LL,94.6 ± 32%
UCACGGGACAUGUAAACCAAA,cell viability,H460,69.7 ± 2.5%
same,cell viability,HeyA8,81.9 ± 9.5%
same,cell viability,M565,40.9 ± 7.1%
same,cell viability,3LL,74.1 ± 11%
UCUGACCACAUGUAAACCAAA,cell viability,H460,29.5 ± 2.2%
same,cell viability,HeyA8,30.5 ± 3.3%
same,cell viability,M565,6.07 ± 0.63%
same,cell viability,3LL,58.1 ± 8.9%
UGACAGAACAUGUAAACCAAA,cell viability,H460,53.5 ± 13%
same,cell viability,HeyA8,24.1 ± 1.2%
same,cell viability,M565,9.01 ± 1.6%
same,cell viability,3LL,41.3 ± 2%
UUGCCGCACAUGUAAACCAAA,cell viability,H460,61.6 ± 2.8%
same,cell viability,HeyA8,63.4 ± 6.7%
same,cell viability,M565,14.4 ± 3.1%
same,cell viability,3LL,3.79 ± 0.23%
UAACGGGACAUGUAAACCAAA,cell viability,H460,77.9 ± 16%
same,cell viability,HeyA8,70.5 ± 11%
same,cell viability,M565,61.8 ± 16%
same,cell viability,3LL,75.3 ± 3.2%
UUAGACCACAUGUAAACCAAA,cell viability,H460,37.3 ± 11%
same,cell viability,HeyA8,80.2 ± 4.7%
same,cell viability,M565,78.5 ± 21%
same,cell viability,3LL,45.7 ± 11%
UCCUGUGACAUGUAAACCAAA,cell viability,H460,55.5 ± 7.4%
same,cell viability,HeyA8,74 ± 6%
same,cell viability,M565,52.9 ± 4%
same,cell viability,3LL,83.8 ± 15%
UACAUAUACAUGUAAACCAAA,cell viability,H460,76.8 ± 4.3%
same,cell viability,HeyA8,52.8 ± 4.3%
same,cell viability,M565,73.6 ± 13%
same,cell viability,3LL,93.6 ± 12%
UCCACAGACAUGUAAACCAAA,cell viability,H460,45.3 ± 3.9%
same,cell viability,HeyA8,79.6 ± 2.5%
same,cell viability,M565,54.4 ± 12%
same,cell viability,3LL,96.7 ± 26%
UUUGCUGACAUGUAAACCAAA,cell viability,H460,79.3 ± 7.1%
same,cell viability,HeyA8,94.5 ± 4.5%
same,cell viability,M565,59 ± 5.7%
same,cell viability,3LL,79.4 ± 2.1%
UUGUGAGACAUGUAAACCAAA,cell viability,H460,54.2 ± 6.2%
same,cell viability,HeyA8,55 ± 2.2%
same,cell viability,M565,11.4 ± 6.2%
same,cell viability,3LL,32.5 ± 5.1%
UACUGCAACAUGUAAACCAAA,cell viability,H460,73.7 ± 8.1%
same,cell viability,HeyA8,77.9 ± 2.5%
same,cell viability,M565,61.3 ± 3%
same,cell viability,3LL,93.3 ± 10%
UUAAUACACAUGUAAACCAAA,cell viability,H460,81.1 ± 11%
same,cell viability,HeyA8,79.5 ± 5.4%
same,cell viability,M565,56.6 ± 7.4%
same,cell viability,3LL,88.1 ± 9.5%
UAGGUUCACAUGUAAACCAAA,cell viability,H460,71 ± 24%
same,cell viability,HeyA8,12.3 ± 1.8%
same,cell viability,M565,32.4 ± 6.4%
same,cell viability,3LL,21.1 ± 3.4%
UGCCUCAACAUGUAAACCAAA,cell viability,H460,35.9 ± 5.3%
same,cell viability,HeyA8,63.5 ± 8.3%
same,cell viability,M565,19.1 ± 5.6%
same,cell viability,3LL,72.2 ± 6.9%
UGCUAGCACAUGUAAACCAAA,cell viability,H460,8.26 ± 0.96%
same,cell viability,HeyA8,4.66 ± 0.75%
same,cell viability,M565,10.6 ± 7.8%
same,cell viability,3LL,7.6 ± 2.8%
UAUGAUGACAUGUAAACCAAA,cell viability,H460,60.8 ± 5.7%
same,cell viability,HeyA8,83.1 ± 5.6%
same,cell viability,M565,83.3 ± 13%
same,cell viability,3LL,105 ± 9.2%
UAGGAAGACAUGUAAACCAAA,cell viability,H460,62.7 ± 6.3%
same,cell viability,HeyA8,68.4 ± 5.7%
same,cell viability,M565,19.9 ± 1.4%
same,cell viability,3LL,78.5 ± 12%
UGAAAAUACAUGUAAACCAAA,cell viability,H460,84.6 ± 24%
same,cell viability,HeyA8,66 ± 7.1%
same,cell viability,M565,63.6 ± 5.9%
same,cell viability,3LL,74.1 ± 11%
